Source: the supplement of paper PMC10723795
Structures can show the parent of a compound that is named as a salt. The list shows a part of the results.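 The calls were made as follows: active = more than 2 SD below the DMSO mean: under 0.85 at 10 µM or 0.885 at 1 µM; inactive = the rest.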 Most values come without repeats; read them as rough.

System: RPE1
Test: nucleolar normality score relative to DMSO (fraction of DMSO control); RPE1 is a non-cancer human cell line; higher = more normal nucleoli (less nucleolar stress)
Settings: 24 h
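Also: fixed cells immunolabelled for nucleolin and UBF, 40 image fields per well in 384-well plates, per-cell score = nucleolin nucleolar/nucleoplasm intensity ratio divided by the matching UBF ratio.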

| Structure (SMILES) | nucleolar normality score (1 µM) | nucleolar normality score (10 µM) |
| --- | --- | --- |
| COc1cc(OC)c2c(=O)[nH]c(-c3cc(C)c(OCCO)c(C)c3)nc2c1 [Apabetalone (RVX-208)] | inactive: 0.991 | inactive: 1.01 |
| COc1cccc(NC(=O)/C=C/c2ccc(Cl)cc2)c1 | inactive: 0.968 | inactive: 0.976 |
| Cc1nc(NC(=O)N2CCC[C@H]2C(N)=O)sc1-c1csc(C(C)(C)C)n1 | inactive: 1 | inactive: 0.891 |
| O=C(Nc1c[nH]nc1-c1nc2ccc(CN3CCOCC3)cc2[nH]1)NC1CC1 | active: 0.851 | active: 0.802 |
| Cn1cc(-c2ccc(F)c(C(F)(F)F)c2)nc1C1CCN(c2ncnc3[nH]ncc23)CC1 | inactive: 1.05 | inactive: 1.06 |
| C[C@@H]1CN(C(=O)c2ccc(NC(=O)c3cc(O[C@H](C)c4c(Cl)ccc(F)c4Cl)c(N)nn3)cc2)C[C@H](C)N1 [Ensartinib (X-396)] | inactive: 1.05 | inactive: 1.06 |
| CC(C)(C)Cn1c(N)nc2ccc(-c3[nH]c(C(C)(C)C)nc3-c3ccc(F)cc3)nc21 | inactive: 1.07 | inactive: 1.08 |
| COc1ccc(C(=O)CC2(O)C(=O)Nc3c(Cl)ccc(Cl)c32)cc1 (stereo unspecified) | inactive: 1.1 | inactive: 1.07 |
| CC(=O)c1ccc(S(=O)(=O)NC(=O)NC2CCCCC2)cc1 [Acetohexamide] | inactive: 0.997 | inactive: 1.05 |
| Nc1ncn([C@@H]2O[C@H](CO)[C@@H](O)[C@H]2O)c(=O)n1 [Azacitidine] | inactive: 0.976 | inactive: 1.04 |
| O=C(Nc1ccc(OC(F)(F)F)cc1)c1sccc1NCc1ccnc2ccccc12 | inactive: 0.948 | inactive: 0.951 |
| CCCCCCCCCCCCCCCCCCOP(=O)([O-])OC1CC[N+](C)(C)CC1 [Perifosine (KRX-0401)] | inactive: 1.02 | inactive: 1.12 |
| COc1cc2c(Oc3ccc4[nH]c(C)cc4c3F)ccnc2cc1OCC1(N)CC1 [Anlotinib (AL3818) dihydrochloride] | inactive: 0.964 | inactive: 0.968 |
| CC(C)(C)c1[nH]cnc1/C=c1\[nH]c(=O)/c(=C/c2ccccc2)[nH]c1=O [Plinabulin (NPI-2358)] | inactive: 0.961 | inactive: 0.971 |
| COC(=O)c1cc(O)c(O)c(O)c1 [Methyl gallate] | inactive: 1.02 | inactive: 0.902 |
| N#Cc1ccc(-c2c(-c3ncn[nH]3)sc(N3CCOCC3)c2C#N)c(F)c1 | active: 0.877 | inactive: 0.956 |
| O=C(c1ccc(C(=O)N2CCC(N3CCCC3)CC2)c(Nc2ccccc2)c1)N1CCC(N2CCCC2)CC1 | inactive: 1.04 | inactive: 0.905 |
| N#CCC1(n2cc(-c3ncnc4[nH]ccc34)cn2)CN(C2CCN(C(=O)c3ccnc(C(F)(F)F)c3F)CC2)C1 | inactive: 0.975 | inactive: 1.01 |
